From the RNAGym collection of RNA variant scans (doi:10.1093/nar/gkz1192) come the findings set out here.

Read counts are not given, so values of variants with three or more changes are uncertain.

To fix the notation:
B1: CPEB3 Ribozyme (parent)
chain: UAACAGGGGGCCACAGCAGAAGCGUUCACGUCGCAGCCCCUGUCAGAUUCUGGUGAAUCUGCGAAUUCUGCUGUAUAUCUC

This series covers variants of B1. Nature of the series: self-cleavage, relative activity (ratio to wild type); higher = more cleavage; in vitro, sequencing. The gist of the method: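 For each CPEB3 ribozyme variant, relative activity is its cleaved/total read fraction divided by the unmutated ribozyme's. Barcoded error-prone PCR libraries were transcribed by T7 RNA polymerase (5 hours, 37°C) and held in DNase I for 15 min before an EDTA stop, with cleavage occurring throughout. Template-switching reverse transcription and Illumina sequencing were used to read the RNAs. A 5-read minimum applied, and results are the mean of three batches.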
As for UAACAGGGGGUCGCAGCAGAAGCGCUCACGUCGCAGCCCCUGCCAUAUUCUGGUGAAUCUGCGAAUUCUGCUGUAUAUCUC [C11U A13G U25C U43C G46U], the self-cleavage was 0.3.
For UAACAGGGGGGCACAGCAGAAGCGUUCACGUAGCAGCCCCUGUCGGAUUCUGGUGAGUCUGCGAAUCCUGCUGUAUAUCCC [C11G C32A A45G A57G U67C U80C], the self-cleavage amounted to 0.1.
The result for UAACAGGGGGGCACAGCAGAAGCGAUCACGCCGCAGCCCCUAUCAGAUUCCGGUGAAUCUGCGAAUUCUGCUGUAUAUCUC [C11G U25A U31C G42A U51C] reads 0.37; that for UAACAGGGGGGCACAGCAGAAGCGUUCACGUUGCAGCCCCUGUCAGAUUCUGGUGAAUCUGCGCAUUCUGCUGUAUAUCUC [C11G C32U A64C], 0.07; that for UAACAGGGGGUCACGGCAGAAGCGUUCACGUCGCAGCCCCUGUCAGAUUCUGGUGAAUCUGCGAAUUCUGCUGUGUAUCUC [C11U A15G A75G], 0.35.
With UAACAGGGGGUCUCAGCAGAAGCAUCCACGCCGCAGCCUCUGUCAGAUUCUGGUGAAUCUGCGGAUUCUGCUGUAUAUCUC [C11U A13U G24A U26C U31C C39U A64G], the self-cleavage came to 0.04.
For the variant UAACAGGGGGGCACAGCAAAAGCGUUCACGUCGCAGCCCCUGUCAGAUUCUGGUGAAUCUGCGUAUUCUGCAGUAUAUCUC [C11G G19A A64U U72A], the self-cleavage was found to be 0.04.
Consider UAACAGGGGGUCACGGCAGAAGCGUUCACUUCGCAGUCCCCGUCAGACUCUGGUGAAUCUGCGAACUCUGCUGUAUAUCUC [C11U A15G G30U C37U U41C U48C U66C], for which the self-cleavage stood at 0.22.
In the case of UAACAGGGGGGCACAGCAGAAGCGCUCACGUCGCAGCCCCUGUCAGAUUCUGGUGUAUCUGCGAGUUCUGCAGUAUAUCUC [C11G U25C A56U A65G U72A], the self-cleavage was determined as 0.11.
The result for UAACAGGGGGUCACGGCAGAAGCGUUCACGACGCAGCCCCUGUCAGAUUCUGGUGAAUCUGCGAAUUCUGCUGUAAGUCUC [C11U A15G U31A U76A A77G] reads 0.1.
For UAACAGGGGGGCACAGCAGAAGCGCUCAUGUCGCAGCCCCUGUCAGAUUCUGGUGAGUCUGCGAAUUCUGCUGUAUACCUC [C11G U25C C29U A57G U78C] the value was 0.07; for UAACAGGGGGGCACAGCAGAAGCGUUCACGUCGCAGACCCUGUCAGAUUCUGGUGAAUCUGCGAGUUCUGCUGUACAUCUC [C11G C37A A65G U76C], 0.05; for UAACAGGGGGGCACAGCAGAAGCGUCCACGUCGCAGCCCCUGUCGGAUUCUGGUGAAUCUGCGAAUUCUGCCGUAUAUCUC [C11G U26C A45G U72C], 0.07.
The result for UAACAGGGGGGCACAGCAGAAGCGUUCACGUCGCAGCCCCCGUCAGAUUCUGCCGAGUCUGCGAAUUCUGCUGUAUAUCUC [C11G U41C G53C U54C A57G] reads 0.39.
For the variant UAACAGGGGGGCACAGCAGAAGCGCUGACGUCGCAGCCCCUGUCAGAUUCUGGUGAAUCUGCGAAUCCUGCUGUAUAUCUC [C11G U25C C27G U67C], the self-cleavage was determined as 0.15.
For the variant UAACAGGGGGGCACAGUAGAAGCGUUCACGUCGCAGCCGCUGUCAGAUUCUGGUGAAUCUGCGAACUCUGCUGUAUAUCUC [C11G C17U C39G U66C], the self-cleavage was found to be 0.06.
For the variant UAACAGGGGGUCUCAGCAGAAGCGUUCUCGUCGCAGCCCCUGUCAGAUUCUGGUGAAUCUGCGAAUACUGAUGUAUAUCUC [C11U A13U A28U U67A C71A], the self-cleavage came out at 0.04.
Take UAACAGGGGGGCACAGCAGAAGCGUUCACGUCGCAGCCCCCGUCAGAUUCUGGUGGAUCUGCGAAUUCUGCUGCAUAUCUC [C11G U41C A56G U74C]: the self-cleavage is 0.89.
For UAACAGGGGGGCACAGCAGAAGCGUUCACGUCGCAGCCCCAGUCGGAUUCUGGUGAAUCUGCGUAUUCUGCUGUAUAUCUC [C11G U41A A45G A64U] the value was 0.33.
On to UAACAGGGGGUCGCAGCAGAAGCGUUCACGUCGCAGCCCCCGUCAGAUUCUGGUGAAUCAGCGAAUUCUGCUGUAUAUCUC [C11U A13G U41C U60A], for which the self-cleavage amounted to 0.26.
For UAACAGGGGGGCACAGCAGAAGCGUUCACGUCGCAGCCCCUGUCAGACUCGGGCGAAUCUGCGAAUCCUGCUGUUCAUCUC [C11G U48C U51G U54C U67C A75U U76C], the self-cleavage came out at 0.08.
Take UAACAGGGGGGCACAGCAGAAGCGAUCACGUCGCAGAACCUGUCAGAUUCUGGUGAAUCUGCGAAUUCUGCUGUAUAUCUC [C11G U25A C37A C38A]: the self-cleavage was 0.32.
UAACAGGGGGGCACAGCAGAAGCGUUCACGUCGCAGCCCCCGUCAGAUUCUGGUGGGUCUGCGAAUUCUGCUGUAUAUCUC [C11G U41C A56G A57G]: the self-cleavage is 0.08.
With UAACAGGGGGGCACAGCAGAAGGGCUCACGUCGCAGCCCCUGUCAGAUUCUGGUGAAUCUGCGAAUUCUGCUGUAUAUCUC [C11G C23G U25C], the self-cleavage worked out at 0.08.
The result for UAACAGGGGGGCACAGCAGAAGCGUUCACGUCGCAGCCCCUGUCAGAUACUGGUGAAUCUGCGAAUUCUGCUGUAUAUCCC [C11G U49A U80C] reads 0.41; that for UAACAGGGGGGCACAGCAGAAGCGUUCACGUCGCAGCCCCAGUCAGAUUCUGGUGAAUCUGCGGACUCUGCUGUAUAUCCC [C11G U41A A64G U66C U80C], 0.04; that for UAACAGGGGGGCACAGCAGAAGCGUUCACGUCGCAGCCCCUGUCAGAUUCCGGAGAAUCUGCGAAUUCCGCUGUAUAUCUC [C11G U51C U54A U69C], 0.34.
For UAACAGGGGGGUACAGCAGAGGCGUUCACGUCGCAGCCCCGGCCAGAUUCUGGUGAAUCUGCGAAUUCUGAUGUAUAUCUC [C11G C12U A21G U41G U43C C71A], the self-cleavage amounted to 0.03.
Take UAACAGGGGGUCACGCCAGAAGCGUUCACGUCGCAGCCCCUGUCAGAUUCUGGUGAGUCUGCGACUUCUGCUGUAUAUCCC [C11U A15G G16C A57G A65C U80C]: the self-cleavage came out at 0.04.
With UAACAGGGGGUCACUGCAGAAGCGUUCGCGUCGCAGCACCUGUCAGAUUCUGGUGGGUCUGCGAGUUCUGCUGUAUAUCUC [C11U A15U A28G C38A A56G A57G A65G], the self-cleavage was 0.11.
UAACAGGGGGGCACAGCAGAAGCGUUCACGUCGCAGCCCCCGUCAGAUUCUGGUGAAUCUGCGAAUUCUGCAGGAUAUCCC [C11G U41C U72A U74G U80C]: the self-cleavage worked out at 1.2.
In the case of UAACAGGGGGUCGCAGCAGGAGCGUUCACGUCGCAGCCCCUGUCAGAUUCUGGUGAAUCUGCGAAUUCUGCUGUAUAUCUC [C11U A13G A20G], the self-cleavage is 0.47.
The result for UAACAGGGGGGCACAGCAGAAGCGUUCACGUCGCAGCCCCUGUCAGAUUCUGGUGAAUCCGCGAAUUCCGCUGUAUAUCUC [C11G U60C U69C] reads 0.08; that for UAACAGGGGGUCACAGCGGAAGCGUUCACGUCGCAGCCCCUGUUAGGUUCUGGUGAAUCUGCGAAUUCUGCUGUAUAUCUC [C11U A18G C44U A47G], 0.27.
